# The campaign covered roughly 390,000 compounds. About 150 (0.038%) were called active. The shares of active, inactive and inconclusive entries below differ from those in the screen. Calls follow the shape of the dose curve; as a rule, active = well fitted inhibition curve with a large enough effect; inconclusive = small, poorly fitted or top-dose-only effect; inactive = no such curve, though single readings can be large or run the other way. Potencies beside an inconclusive call are fits to weak or partial responses and may not hold up.
# Target: Regulator of G-protein signaling 4 (Homo sapiens) (UniProt P49798)
# UniProt P49798, sequence (P49798 whole entry, looked up): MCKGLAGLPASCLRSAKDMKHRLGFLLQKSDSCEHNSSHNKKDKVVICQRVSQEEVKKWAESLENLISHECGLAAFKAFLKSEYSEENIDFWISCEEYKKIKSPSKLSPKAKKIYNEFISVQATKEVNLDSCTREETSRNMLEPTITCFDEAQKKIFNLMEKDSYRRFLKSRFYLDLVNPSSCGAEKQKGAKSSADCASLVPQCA
# Assay: Inhibitors of Regulator of G Protein Signaling (RGS) 4: qHTS; also: nearly all actives have a fitted effect of over 75% in size
# Details: Transcreener GDP fluorescence polarization, RGS4-accelerated GTP hydrolysis; series mostly up to 114 µM; activity change, negative = inhibition: at the top concentration
# Outline: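 MLSMR compounds (23 nl, pin-transferred) preincubated 10 min at room temperature with a 500nM (2x) first reagent, then RGS4 at 900nM (2x) plus Transcreener GDP mix added; fluorescence polarization (620/688 nm) read before and after 90 min at 30 °C.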
# % is scaled to controls: 0 for no effect and ±100 for the full control effect; potency is read from the fitted curve at half-maximal effect; tags tell the direction and shape of the fitted curve.
Compound,Potency,"activity change, negative = inhibition"
CCNc1ccc(S(=O)(=O)N(C)C)cc1NCC(=O)Nc1ccc(F)c(Cl)c1,"inconclusive: 79.4 µM [inhibitor, partial curve, poor fit]",–
CCOC(=O)CC(NC(=O)c1cc2cccc(OC)c2oc1=O)c1cccc([N+](=O)[O-])c1 (configuration not stated),"inconclusive: 17.8 µM [inhibitor, full curve, poor fit]",–
Nc1c(C(=O)NCCc2ccccc2)nnn1CC(=O)Nc1ccc(Cl)cc1,"inconclusive: 39.8 µM [inhibitor, partial curve, poor fit]",–
CCc1cc2c3c(c1)C1(C(=O)N3C(C)(C)CC2C)C(C#N)=C(N)N2C(=C1C#N)Nc1ccccc12 (configuration not stated),"inconclusive: 79.4 µM [inhibitor, single point]",–
Cc1cccc(NC(=S)NCC23C=CC(O2)C2C(=O)N(c4ccc(Cl)cc4)C(=O)C23)c1 (configuration not stated),"inconclusive: 17.8 µM [inhibitor, full curve, poor fit]",–
Cc1cccc(N(C)c2cc(C)nc3nc(C)nn23)c1,"inconclusive: 44.7 µM [inhibitor, partial curve, poor fit]",–
CCOc1cccc(/C=N/NC(=O)c2ccc3c(c2)OCCO3)c1O,"inconclusive: 79.4 µM [inhibitor, partial curve, poor fit]",–
O=C(C[n+]1ccc(CCSc2ccc(F)cc2)cc1)c1ccccc1,"inconclusive: 31.6 µM [inhibitor, full curve, poor fit]",–
COc1ccc(NC(=O)Nc2c(SC)nsc2SC)cc1,"inconclusive: 79.4 µM [inhibitor, partial curve, poor fit]",–
N#CCSc1n[nH]c2nc3c(c(=O)n12)C1(CCCCC1)Cc1ccccc1-3,"inconclusive: 100 µM [inhibitor, partial curve, poor fit]",–
O=[N+]([O-])c1ccc(C2CC(c3ccccc3)=Nc3ccccc3S2)cc1 (configuration not stated),"inconclusive: 20 µM [inhibitor, full curve, poor fit]",–
COc1ccc2c(=O)c(-c3ccccc3)coc2c1,inactive,–
CCOC(=O)C1=C(C)N(c2ccc(C)cc2)C(=O)/C1=C\c1ccc(O)c(OC)c1,"inconclusive: 50.1 µM [inhibitor, partial curve, poor fit]",–
O=C(Nc1ccc(Br)cc1)N1CCCCCC1,–,inactive: 2.55%
CCc1ccc2oc(-c3ccc(OC)cc3)cc(=Nc3cccc(C(=O)O)c3)c2c1,"inconclusive: 25.1 µM [inhibitor, full curve, poor fit]",–
COc1ccc(-c2nc(NC(C)=O)sc2-c2ccc(OC)cc2)cc1,–,inactive: 3.29%
CCOc1ccc(C2C(C(=O)Nc3ccccc3)=C(C)N=c3s/c(=C/c4cccc(OCC(=O)O)c4)c(=O)n32)cc1 (configuration not stated),"inconclusive: 89.1 µM [inhibitor, partial curve, poor fit]",–
N=c1c(C(=O)NCC2CCCO2)cc2c(=O)n3ccccc3nc2n1Cc1ccccc1 (configuration not stated),–,inactive: -7.56%
CC(=O)Nc1ccc(SCC(=O)c2cc(C)n(-c3ccccc3F)c2C)cc1,–,inactive: -32.2%
COC(=O)CCC(=O)OC1(C)C(=O)C2=CN(Cc3ccccc3)C(c3ccc(OC)cc3)=CC2=C(Br)C1=O (configuration not stated),"inconclusive: 17.8 µM [inhibitor, full curve, poor fit]",–
O=C(O)c1cc(-c2ccc(/C=C3\NC(=O)N(c4ccccc4)C3=O)o2)ccc1Cl,"inconclusive: 17.8 µM [inhibitor, full curve, poor fit]",–

Compound,Potency,"activity change, negative = inhibition"
O=S(=O)(NCc1ccccc1)c1ccc(S(=O)(=O)N2CCCC2)cc1,"inconclusive: 56.2 µM [inhibitor, partial curve, poor fit]",–
NC(=O)c1ccc[n+]([C@H]2O[C@@H](COP(=O)([O-])OP(=O)(O)OC[C@H]3O[C@@H](n4cnc5c(N)ncnc54)[C@H](O)[C@@H]3O)[C@H](O)[C@@H]2O)c1,"inconclusive: 39.8 µM [inhibitor, partial curve, poor fit]",–
Cc1cccc(Nc2nc3c(s2)CCCC3)c1,"inconclusive: 100 µM [inhibitor, partial curve, poor fit]",–
Oc1oc(-c2ccccc2Br)nc1C=Nc1ccc(Br)cn1,"inconclusive: 17.8 µM [inhibitor, full curve, poor fit]",–
COc1ccc(-c2nc3ccccc3o2)cc1NC(=O)COc1ccc(C)c(C)c1,–,inactive: -9.07%
CCOC(=O)c1cnc(SCC#N)nc1N,–,inactive: -26.4%
O=C(C(Br)=Cc1ccccc1)c1ccccc1,"inconclusive: 35.5 µM [inhibitor, partial curve, poor fit]",–
CN(CC(=O)Nc1cccc(F)c1)C(=O)c1csc2c1CCCC2,"inconclusive: 89.1 µM [inhibitor, single point]",–
COc1ccc(/C=C2\SC(c3ccc(C)cc3)=NC2=O)cc1OC,"inconclusive: 10 µM [inhibitor, full curve, poor fit]",–
O=C(/C=C\Nc1ccc2c(c1)OCO2)c1ccc2c(c1)OCO2,"inconclusive: 31.6 µM [inhibitor, full curve, poor fit]",–
CC[n+]1c(/C=C/N(C)c2ccccc2)oc2ccc(F)cc21,"inconclusive: 70.8 µM [inhibitor, single point]",–
COC(=O)c1ccc(CSc2nc3c(cnn3-c3ccc(C)c(C)c3)c(=O)[nH]2)o1,"inconclusive: 89.1 µM [inhibitor, single point]",–
COc1cc(C(=S)N2CCOCC2)cc(OC)c1OC(=O)c1ccc(F)cc1,"inconclusive: 89.1 µM [inhibitor, partial curve, poor fit]",–
CN1/C(=C/c2cccc[n+]2CCO)Sc2ccccc21,–,inactive: -19.6%
CC(=O)c1nn(-c2ccc(Cl)cc2)cc1C(=O)c1ccccc1,"inconclusive: 100 µM [inhibitor, partial curve, poor fit]",–
CCc1nc2ccccc2n1CC(=O)N1CCN(Cc2ccccc2)CC1,"inconclusive: 50.1 µM [inhibitor, partial curve, poor fit]",–
CC(C)CNC(=O)C1Nc2ccc(OC(F)(F)F)cc2C2C=CCC12 (configuration not stated),"inconclusive: 79.4 µM [inhibitor, single point]",–
COc1ccc2[nH]c(=O)c(CN(C3CCCCC3)C(c3nnnn3Cc3ccco3)C(C)C)cc2c1 (configuration not stated),"inconclusive: 50.1 µM [inhibitor, partial curve, poor fit]",–
CC(C)OC(=O)c1ccc(NC(=O)C2C3CC4OC(=O)C2C4C3)cc1 (configuration not stated),–,inactive: -4.71% [at 11.4 µM]
Nc1ncn(C(=S)Nc2ccccc2)n1,"inconclusive: 70.8 µM [inhibitor, partial curve, poor fit]",–
O=C(CC1Sc2ncnn2C1=O)Nc1ccccc1 (configuration not stated),–,inactive: -17.5%

Compound,Potency,"activity change, negative = inhibition"
Cc1ccc(NN2C(=O)C=C(c3ccccc3)C2=O)cc1,"inconclusive: 17.8 µM [inhibitor, full curve, poor fit]",–
O=C(COC(=O)c1ccco1)Nc1ccccc1,"inconclusive: 89.1 µM [inhibitor, single point]",–
COc1ccc(CCNC(=O)c2ccc(=O)[nH]c2)cc1,–,inactive: 6.6%
Cn1/c(=N/N=C/c2ccccn2)sc2ccccc21,"inconclusive: 50.1 µM [inhibitor, partial curve, poor fit]",–
Cc1ccc(C)n1-c1ccc(N2CCOCC2)nc1,–,inactive: -21.5%
CCCC(=O)Nc1sc(C)c(C)c1C#N,"inconclusive: 31.6 µM [inhibitor, partial curve, poor fit]",–
COc1ccc(-c2c(-c3ccsc3)oc(=O)c3cc(OC)c(OC)cc23)cc1,–,inactive: 15.9%
Cc1ccc(NC(=O)CSc2cccc[n+]2[O-])c([N+](=O)[O-])c1,–,inactive: 6.89%
CNc1nc(-c2ccccc2)[n+](-c2ccc(C)cc2)s1,"inconclusive: 31.6 µM [inhibitor, full curve, poor fit]",–
CSc1nnc(-c2ccccc2SC)o1,"inconclusive: 50.1 µM [inhibitor, partial curve, poor fit]",–
CC(=O)Nc1ccc(S(=O)(=O)Nc2cccc(-c3cn4cccnc4n3)c2)cc1,"inconclusive: 79.4 µM [inhibitor, partial curve, poor fit]",–
S=c1[nH]nc(-c2ccc3c(c2)OCO3)n1-c1ccccc1,"inconclusive: 79.4 µM [inhibitor, partial curve, poor fit]",–
CN1CCc2c(sc(N)c2C(=O)c2ccc(Cl)cc2)C1,"inconclusive: 79.4 µM [inhibitor, partial curve, poor fit]",–
Cc1nc(C)c(C(=O)NCc2ccccc2Cl)o1,"inconclusive: 50.1 µM [inhibitor, partial curve, poor fit]",–
COC(=O)c1ccccc1CSc1nsc(C)c1C#N,"inconclusive: 56.2 µM [inhibitor, partial curve, poor fit]",–
CCOC(=O)c1sc(=S)n(-c2ccccc2OC)c1N,"inconclusive: 31.6 µM [inhibitor, full curve, poor fit]",–
O=C(CSc1ccc(-c2ccco2)nn1)Nc1ccc(F)cc1,"inconclusive: 50.1 µM [inhibitor, partial curve, poor fit]",–
Cc1ccc(NC(=O)CCC(=O)OCc2ccc(Br)cc2)cc1,"inconclusive: 89.1 µM [inhibitor, single point]",–
Nc1c(C(=O)N2CCOCC2)sc(=S)n1-c1ccccc1,"inconclusive: 79.4 µM [inhibitor, partial curve, poor fit]",–
CCOC(=O)c1cc(-c2ccc(/C=C3/C(=O)NC(=O)C(C#N)=C3C)o2)ccc1Cl,"inconclusive: 28.2 µM [inhibitor, full curve, poor fit]",–

# Source: PubChem BioAssay AID504845 (National Center for Advancing Translational Sciences (NCATS), 2011)
